# The list shows a part of the results.
# B1: Als3-41 (Candida albicans) (protein)
# chain: KTITGVFNSFNSLTWSNAATYNYKGPGTPTWNAVLGWSLDGTSASPGDTFTLNMPCVFKFTTSQTSVDLTAHGVKYATCQFQAGEEFMTFSTLTCTVSNTLTPSIKALGTVTLPLAFNVGGTGSSVDLEDSKCFTAGTNTVTFNDGGKKISINVDFERSNVDPKGYLTDSRVIPSLNKVSTLFVAPQCANGYTSGTMGFANTYGDVQIDCSNIHVGITKGLNDWNYPVSSESFSYTKTCSSNGIFITYKNVPAGYRPFVDAYISATDVNSYTLSYANEYTCAGGYWQRAPFTLRWTGYRNSDAGSNGIVIVATTRTVTDSTTAVTTLPFDPNRDKTKTIEILKPIPTTTITTSYVGVTTSYLTKTAPIGETATVIVD
# Tests used:
# Test in all cases: glycan array binding signal (z-score within array); higher = stronger binding
# Details in all cases: glycan notation: IUPAC condensed, linker removed
# Gal(a1-3)Gal = biological target: Gal(a1-3)Gal
# Outline: (§1)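 The binding signal is a Z-score computed within each array. Data were drawn from 3228 arrays in the Consortium for Functional Glycomics database, restricted to those with a known protein sequence. Scores were averaged over arrays of the same protein sequence at different concentrations or buffers, and over linkers, and negative values can be taken as non-binding.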
# Gal(a1-3)Gal(b1-3)GlcNAc = biological target: Gal(a1-3)Gal(b1-3)GlcNAc
# Outline: as §1
# [1] = biological target: Gal(a1-3)Gal(b1-3)GlcNAc(b1-2)Man
# Outline: as §1
# [2] = biological target: Gal(a1-3)Gal(b1-3)GlcNAc(b1-2)Man(a1-3)[Gal(a1-3)Gal(b1-3)GlcNAc(b1-2)Man(a1-6)]Man(b1-4)GlcNAc(b1-4)GlcNAc
# Outline: as §1
# [3] = biological target: Gal(a1-3)Gal(b1-3)GlcNAc(b1-3)GalNAc
# Outline: as §1
# [4] = biological target: Gal(a1-3)Gal(b1-3)GlcNAc(b1-6)GalNAc
# Outline: as §1
# [5] = biological target: Gal(a1-3)Gal(b1-3)[Fuc(a1-4)]GlcNAc(b1-2)Man(a1-3)[Gal(a1-3)Gal(b1-3)[Fuc(a1-4)]GlcNAc(b1-2)Man(a1-6)]Man(b1-4)GlcNAc(b1-4)GlcNAc
# Outline: as §1
# Gal(a1-3)Gal(b1-4)Glc = biological target: Gal(a1-3)Gal(b1-4)Glc
# Outline: as §1
# Gal(a1-3)Gal(b1-4)GlcNAc = biological target: Gal(a1-3)Gal(b1-4)GlcNAc
# Outline: as §1
# [6] = biological target: Gal(a1-3)Gal(b1-4)GlcNAc(b1-2)Man
# Outline: as §1
# [7] = biological target: Gal(a1-3)Gal(b1-4)GlcNAc(b1-2)Man(a1-3)[Gal(a1-3)Gal(b1-4)GlcNAc(b1-2)Man(a1-6)]Man(b1-4)GlcNAc(b1-4)GlcNAc
# Outline: as §1
# [8] = biological target: Gal(a1-3)Gal(b1-4)GlcNAc(b1-3)GalNAc
# Outline: as §1
# [9] = biological target: Gal(a1-3)Gal(b1-4)GlcNAc(b1-6)GalNAc
# Outline: as §1
# [10] = biological target: Gal(a1-3)Gal(b1-4)[Fuc(a1-3)]GlcNAc
# Outline: as §1
# [11] = biological target: Gal(a1-3)Gal(b1-4)[Fuc(a1-3)]GlcNAc(b1-2)Man(a1-3)[Gal(a1-3)Gal(b1-4)[Fuc(a1-3)]GlcNAc(b1-2)Man(a1-6)]Man(b1-4)GlcNAc(b1-4)GlcNAc
# Outline: as §1
# Gal(a1-3)GalNAc = biological target: Gal(a1-3)GalNAc
# Outline: as §1
# [12] = biological target: Gal(a1-3)[Gal(a1-4)]Gal(b1-4)GlcNAc
# Outline: as §1
# [13] = biological target: Gal(a1-4)Gal(b1-3)GlcNAc(b1-2)Man(a1-3)[Gal(a1-4)Gal(b1-3)GlcNAc(b1-2)Man(a1-6)]Man(b1-4)GlcNAc(b1-4)GlcNAc
# Outline: as §1
# Gal(a1-4)Gal(b1-4)Glc = biological target: Gal(a1-4)Gal(b1-4)Glc
# Outline: as §1
# Gal(a1-4)Gal(b1-4)GlcNAc = biological target: Gal(a1-4)Gal(b1-4)GlcNAc
# Outline: as §1
# [14] = biological target: Gal(a1-4)Gal(b1-4)GlcNAc(b1-2)Man(a1-3)[Gal(a1-4)Gal(b1-4)GlcNAc(b1-2)Man(a1-6)]Man(b1-4)GlcNAc(b1-4)GlcNAc
# Outline: as §1
# [15] = biological target: Gal(a1-4)Gal(b1-4)GlcNAc(b1-3)Gal(b1-4)Glc
# Outline: as §1
# Gal(a1-4)GlcNAc = biological target: Gal(a1-4)GlcNAc
# Outline: as §1
# Gal(a1-6)Glc = biological target: Gal(a1-6)Glc
# Outline: as §1
# Gal(b1-2)Gal = biological target: Gal(b1-2)Gal
# Outline: as §1
# Gal(b1-3)Gal = biological target: Gal(b1-3)Gal
# Outline: as §1
# Gal(b1-3)Gal(b1-4)GlcNAc = biological target: Gal(b1-3)Gal(b1-4)GlcNAc
# Outline: as §1
# Gal(b1-3)GalNAc = biological target: Gal(b1-3)GalNAc
# Outline: as §1
# [16] = biological target: Gal(b1-3)GalNAc(a1-3)[Fuc(a1-2)]Gal(b1-4)Glc
# Outline: as §1
# [17] = biological target: Gal(b1-3)GalNAc(a1-3)[Fuc(a1-2)]Gal(b1-4)GlcNAc
# Outline: as §1
# Gal(b1-3)GalNAc(b1-3)Gal = biological target: Gal(b1-3)GalNAc(b1-3)Gal
# Outline: as §1
# [18] = biological target: Gal(b1-3)GalNAc(b1-3)Gal(a1-4)Gal(b1-4)Glc
# Outline: as §1
# [19] = biological target: Gal(b1-3)GalNAc(b1-4)Gal(b1-4)Glc
# Outline: as §1
# [20] = biological target: Gal(b1-3)GalNAc(b1-4)[Neu5Ac(a2-3)]Gal(b1-4)Glc
# Outline: as §1
# Gal(b1-3)GlcNAc = biological target: Gal(b1-3)GlcNAc
# Outline: as §1
# [21] = biological target: Gal(b1-3)GlcNAc(a1-3)Gal(b1-4)GlcNAc
# Outline: as §1
# [22] = biological target: Gal(b1-3)GlcNAc(a1-6)Gal(b1-4)GlcNAc
# Outline: as §1
# Gal(b1-3)GlcNAc(b1-2)Man = biological target: Gal(b1-3)GlcNAc(b1-2)Man
# Outline: as §1
binder,measurement,setting,value
B1,glycan array binding signal (z-score),Gal(a1-3)Gal,-0.269
same,glycan array binding signal (z-score),Gal(a1-3)Gal(b1-3)GlcNAc,-0.274
same,glycan array binding signal (z-score),[1],-0.272
same,glycan array binding signal (z-score),[2],0.022
same,glycan array binding signal (z-score),[3],0.231
same,glycan array binding signal (z-score),[4],-0.293
same,glycan array binding signal (z-score),[5],-0.227
same,glycan array binding signal (z-score),Gal(a1-3)Gal(b1-4)Glc,-0.321
same,glycan array binding signal (z-score),Gal(a1-3)Gal(b1-4)GlcNAc,-0.345
same,glycan array binding signal (z-score),[6],-0.289
same,glycan array binding signal (z-score),[7],0.23
same,glycan array binding signal (z-score),[8],-0.242
same,glycan array binding signal (z-score),[9],-0.001
same,glycan array binding signal (z-score),[10],-0.125
same,glycan array binding signal (z-score),[11],0.391
same,glycan array binding signal (z-score),Gal(a1-3)GalNAc,-0.296
same,glycan array binding signal (z-score),[12],-0.252
same,glycan array binding signal (z-score),[13],0.106
same,glycan array binding signal (z-score),Gal(a1-4)Gal(b1-4)Glc,-0.114
same,glycan array binding signal (z-score),Gal(a1-4)Gal(b1-4)GlcNAc,0.331
same,glycan array binding signal (z-score),[14],0.002
same,glycan array binding signal (z-score),[15],-0.213
same,glycan array binding signal (z-score),Gal(a1-4)GlcNAc,-0.149
same,glycan array binding signal (z-score),Gal(a1-6)Glc,-0.255
same,glycan array binding signal (z-score),Gal(b1-2)Gal,-0.182
same,glycan array binding signal (z-score),Gal(b1-3)Gal,-0.067
same,glycan array binding signal (z-score),Gal(b1-3)Gal(b1-4)GlcNAc,-0.059
same,glycan array binding signal (z-score),Gal(b1-3)GalNAc,-0.311
same,glycan array binding signal (z-score),[16],0.097
same,glycan array binding signal (z-score),[17],-0.256
same,glycan array binding signal (z-score),Gal(b1-3)GalNAc(b1-3)Gal,-0.141
same,glycan array binding signal (z-score),[18],0.05
same,glycan array binding signal (z-score),[19],-0.195
same,glycan array binding signal (z-score),[20],0.174
same,glycan array binding signal (z-score),Gal(b1-3)GlcNAc,-0.234
same,glycan array binding signal (z-score),[21],-0.315
same,glycan array binding signal (z-score),[22],-0.263
same,glycan array binding signal (z-score),Gal(b1-3)GlcNAc(b1-2)Man,0.151

# Reference: the supplement of paper PMC8728848
